PubChem BioAssay AID924 (National Center for Advancing Translational Sciences (NCATS), 2007)
The whole screen tested about 130,000 compounds, of which about 1,200 (0.92%) were called active. The inconclusive results got no clear call from the source; some entries with a clear call stand among them for comparison. Calls come from the whole dose curve; as a rule, active = well fitted cell-killing curve with a large enough effect; inconclusive = small, poorly fitted or top-dose-only effect; inactive = no such curve, though single readings can be large or run the other way. Potencies beside an inconclusive call are fits to weak or partial responses and may not hold up.
Potency is the fitted concentration of half-maximal effect; tags give direction and shape of the fitted curve.

Test: qHTS Screen for Compounds that Selectively Target Cancer Cells with p53 Mutations: Cytotoxicity of p53ts Cells at the Permissive Temperature; note: nearly all actives have a fitted effect of over 55% in size
Settings: H1299-p53A138V at 32C, ATP luminescence viability, 24 h; series mostly up to 46.1 µM
Text: NIH Chemical Genomics Center [NCGC] NIH Molecular Libraries Screening Centers Network [MLSCN] MLSCN Grant: 1 X01 MH079844-01 Assay Submitter (PI): Dr. SUN, YI, University of Michigan NCGC Assay Overview: Synthetic Lethal Screen for Compounds to Kill Cancer Cells with p53 Mutation. Tumor suppressor gene p53 serves as a major cellular barrier against tumorigenesis. […] The goal of this screening is to identify small molecule probes that selectively kill cancer cells with mutations in p53. This screening was carried out using two lines of H1299 lung cancer cells. The H1299-p53 A138V line express a temperature sensitive p53 mutant (p53ts) in which the mutant p53 protein (A138V) is in the mutant confirmation when grown at 39C (the nonpermissive temperature) and in the wild type conformation when grown at 32C (the permissive temperature). A H1299-neo line (p53 null) grown at both 39C and 32C were used as counter-screens to filter out false positive associated with temperature shifting. The small molecular compounds that selectively target mutant p53-containing cancer cells were selected as candidate probes for further study. A cytotoxicity assay based on the measurement of ATP contents in cells was used in this screen. Concentration-responses of all the compounds in the library collection were determined in qHTS using the cell lines and temperature conditions as above.
NCGC Assay Protocol Summary: Both the H1299-p53A138V and H1299-neo cell lines were provided by Dr.Yi Sun, a PI at the University Michigan. The cells were maintained and cultured at 37C. The resuspended frozen cells were used to plate the cells in the 1536-well assay plates at a density of 600 cells per well in 5 ul medium. The assay plates with the cells were incubated at 37C for 16 to 30 hours before the experiments. The library compounds in DMSO solution were added to the cells in assay plates and incubated 24 hours at 39C (for mutant p53 conformation) or 32C (for normal p53 conformation as control). An ATP_lite assay kit (PerkinElmer) was used to determine the cell viability. Tomaxifen (100uM) was used as the positive control for cell killing. Data were normalized to the controls for basal activity (DMSO only) and 100% killing (100uM tamoxifen). AC50 values were determined from concentration-response data modeled with the standard Hill equation. P53 assay protocol: 1. Reagent; 5 uL H1299-p53A138V or H1299-neo cell cells/well 2. Time; overnight; 37C incubation 3. Compounds; 23 nL; 5.9 nM to 46 uM 4. Controls; 23 nL; Tamoxifen 100 uM 5. Time; 24 hr; 37C incubation 6. Reagent; 3 uL; ATP_Lite reagent 7. Time; 20 min; Room Temperature 8. Detection; Luminescence; Viewlux plate reader Keywords: p53, synthetic lethal, cancer, cell viability, cytotoxicity, H1299 cell line, luminescence, MLSMR, MLSCN, NIH Roadmap, qHTS, NCGC
With CCc1ccc(NC(=O)Cn2nnc(-c3ccccc3N)n2)cc1 the Potency was inconclusive: 6.31 µM [cytotoxic, single point].
For O=C(On1c(-c2ccccc2)nc2ccccc2c1=O)c1ccco1, the Potency was inconclusive: 31.6 µM [cytotoxic, single point].
For Cc1ccccc1S(=O)(=O)Cc1ccc(C(=O)N2CCN(c3cccc(C)c3C)CC2)o1, the Potency was inconclusive: 15.8 µM [cytotoxic, single point].
For CC(=O)N1CCCc2ccc(NC(=O)c3ccc(OC(C)C)cc3)cc21, the Potency was inconclusive: 20 µM [cytotoxic, single point].
With CC(C)=CC[N+]1(C)CCCCC1 the Potency was inconclusive: 0.282 µM [cytotoxic, full curve, poor fit].
With O=C(c1csnn1)N1CCC2(CC1)CN(c1ccccn1)C2 the Potency was “inactive”.
In the case of CNC(=O)c1ccc(-c2sc3nc(N4CCOCC4)c4c(c3c2N)CCCC4)o1, the Potency is reported as inconclusive: 31.6 µM [cytotoxic, single point].
For COc1ccc(NC(=O)c2c(NCc3cccc(F)c3)sc3c2CCC3)c(OC)c1, the Potency was inconclusive: 0.005 µM [cytotoxic, full curve].
In the case of O=C(NCC(c1cccnc1)N1CCN(c2ccccc2F)CC1)c1ccc(F)cc1 (centres undefined), the Potency is reported as “inactive”.
With COCCCn1c(SCC(=O)OC2CCCCC2)nnc1-c1ccco1 the Potency was inconclusive: 20 µM [cytotoxic, single point].
In the case of Cc1cccc(Nc2nc(-c3ccccn3)cs2)n1, the Potency is reported as inconclusive: 31.6 µM [cytotoxic, single point].
For CC(C)OC(=O)c1ccc(NC(=O)C2C3CC4OC(=O)C2C4C3)cc1 (centres undefined), the Potency was inconclusive: 31.6 µM [cytotoxic, single point].
In the case of c1csc(-c2nc3nc4ccccc4nc3n2Cc2ccc3c(c2)OCO3)c1, the Potency is reported as inconclusive: 20 µM [cytotoxic, single point].
For CCN(CC(=O)Nc1ccc2c(c1)CCC2)Cc1nc2ccccc2c(=O)[nH]1, the Potency was inconclusive: 31.6 µM [cytotoxic, single point].
With CCOC(=O)c1cc2c(=O)n3ccccc3nc2n(CC2CCCO2)c1=NC(=O)c1cccc(C)c1 (centres undefined) the Potency was inconclusive: 15.8 µM [cytotoxic, single point].
With COc1nc(C)ccc1-c1noc(-c2ccco2)n1 the Potency was active: 12.6 µM.
In the case of Cc1cc(C)n2cc(CSCc3ccco3)nc2n1, the Potency is reported as “inactive”.
For O=C(Cn1nnc(-c2ccccc2NC(=O)c2cccs2)n1)Nc1ccccc1, the Potency was inconclusive: 20 µM [cytotoxic, single point].
With COc1ccc(C(NC(C)=O)c2ccc3cccnc3c2O)c(OC)c1 (centres undefined) the Potency was inconclusive: 1.26 µM [cytotoxic, full curve, poor fit].
